In all, about 33,000 sequences were measured (“E-score (-0.5 to 0.5)”: median about -0.01, highest 2% from about 0.26 on). Some of the results follow.
Molecular target: Ste12 (UniProt P13574)
Assay: PBM E-score (8-mer binding enrichment) (E-score (-0.5 to 0.5)); higher = stronger / more preferred TF binding; most listed sequences are background and not binding sites
Conditions: protein concentration: 200 nM; construct: GST-DNA-binding domain
Protocol: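 Universal 'all 10-mer' protein binding microarrays (Agilent AMADID 015681) probed with GST-tagged S. cerevisiae TFs (full-length or DBD) made by in vitro transcription/translation (PURExpress), about 100-200 nM. Bound TF was detected with fluorescent anti-GST. Each ungapped 8-mer (which stands for itself and its reverse complement) is scored by the PBM enrichment score (E-score), a modified Wilcoxon-Mann-Whitney statistic from -0.5 to +0.5, computed with the Universal PBM Analysis Suite. Scale: above 0.35 generally sequence-specific binding.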

Sequence | PBM E-score
AGACACGG | -0.132
CGACTAGC | -0.0587
ATGCCCCA | -0.105
AGAATCCG | -0.1
AATCTTCT | 0.0766
TCGGGAGA | -0.151
ACGGTGTG | -0.171
CCGAATAA | 0.133
CCACAAAG | 0.0762
ACCCACAT | -0.0368
GTACGCTA | -0.0588
ACAGAAGA | -0.0268
ACATTTTG | 0.0789
CGCGCAAG | 0.0503
TCCTCAGA | -0.0776
CTAAGTTA | 0.111
AAGATCAT | -0.13
CCTCTGAC | -0.0436
CGAGCCAC | -0.143
CAACAACC | 0.0311
GTACGCAC | -0.147
GAGTCCAA | -0.00274
GGTACACC | -0.216
AATAGAAT | 0.0388
ATCACTAG | -0.207

Sequence | PBM E-score
CCATCGTC | -0.0845
CACTGGTA | -0.00285
AATGTACT | 0.137
CTAGTCCC | -0.18
CAACAGAC | -0.018
TGACGGCA | 0.0373
CAGAAAAC | 0.133
GTCAACAC | 0.0424
ACGGCTCG | -0.0221
CAGCTGTA | -0.11
CACCGGTA | 0.0542
TATTCGAA | 0.0527
ACTGTCAA | -0.0201
ATAGAGCG | -0.105
CTTGAGTC | -0.136
ATGGTGCA | -0.105
CTTACATC | 0.093
TACCGTGA | -0.00059
GAGACGGA | -0.0823
AATTGCCC | 0.0476
CTGACTTA | 0.0671
ACTTCTCT | 0.0703
AGCAGGCT | -0.266
CCAGAACG | 0.113
ACCGGTCA | 0.0217

Sequence | PBM E-score
ATCGCCCG | -0.112
ACAACGTC | -0.135
ATGCAACG | 0.141
AGGTATGA | 0.0451
ATGATAAC | 0.138
GGCTTCCA | -0.25
GATGAGCC | -0.203
CACGGGTC | -0.141
CGCCCCTC | 0.351
GGATTCCA | 0.107
GACGGTAC | -0.0808
ATCACATA | -0.0478
CACCATGA | 0.0412
CAGATCTA | -0.108
AATGCTCA | -0.0981
CCGTTATC | -0.00617
AGCGAAGG | -0.0315
CTCCCTAA | -0.0679
CACATTCG | 0.0938
ATTACCGA | 0.186
AGTCCACG | -0.0884
ATCGGTGA | 0.0622
AGATTATC | -0.0475
AACGACAA | 0.153
AAATGATG | 0.0593

Sequence | PBM E-score
GACGGAGC | -0.0257
ACAATCAA | -0.0462
CCCTAGCG | -0.19
CATCGCAG | 0.0257
GCCGTCCA | -0.101
AGACGCTG | -0.0846
GGGTGTTA | 0.11
CCGCTTTA | 0.115
GCCCGAAA | 0.113
ATAGATTA | 0.209
AATTGCTC | -0.099
ACTGATCA | 0.0587
ATGACCGC | -0.0289
CTTTCCGA | 0.131
CGCGAACA | 0.0454
CCGAGAAA | 0.162
ATGCTGCC | -0.122
CCTTGCCA | -0.00668
ATACTAAG | -0.0742
GAATTCCC | -0.0071
AGCTCTAC | -0.165
ACTAGCAG | 0.0511
CTGTAGTC | -0.214
AGCCCTTA | -0.258
GTCGTAAC | 0.107

Sequence | PBM E-score
ACCGATAA | 0.147
AGGGTCAA | 0.113
CCAGCAGC | -0.0947
GGTAATAC | 0.185
ATAAGTTA | 0.138
GCCTCTAC | -0.239
GAAGCGCA | -0.162
ATGCATAG | -0.11
CGCTAAGA | 0.0474
CAGCTATA | 0.0924
GCGTAAGC | -0.24
CCGTGTAG | -0.0265
CGCGTGCA | -0.0192
CGAATCAA | 0.162
CAACCATA | 0.0684
CTCAGTCC | -0.221
AATCGTGA | -0.0689
CGGCGACG | 0.0339
CGCGTTAA | 0.00101
CCTATCCG | -0.15
GCCCGCGC | 0.0479
AATCGTCA | -0.0429
CAGGCAGG | -0.145
ACCGTAGG | -0.274
CACCCCTG | -0.0572

Sequence | PBM E-score
GCTAATAA | -0.0235
AGAAAAGG | 0.176
GATGATAC | 0.0614
TACATACA | 0.192
ATAAACGG | 0.142
GGATTGCA | 0.117
AAAGGTGA | 0.0476
ACGTTTTG | 0.222
CGCGGTTA | 0.0706
GGCGAGCA | -0.0713
GTCTAAAA | 0.135
CCGGTGAG | -0.0624
CCGATCGC | -0.0205
AGAGAATC | -0.0492
CGAACACA | 0.0728
TCATCGAA | 0.0775
AGTATGAT | 0.0791
GGGAGATA | -0.0771
AGTGGTTC | -0.158
TTACCAAA | 0.263
GATGAGGC | 0.0467
ATAAAAGC | -0.00425
CACGCCAA | -0.0924
ACGTCAGT | -0.138
GACGTATA | -0.0508

Sequence | PBM E-score
CAATCGGA | 0.204
CACGTCGG | -0.194
AGTGTCGG | 0.0566
CCTGTACG | -0.131
GGAAGACC | -0.00071
AACTGATT | -0.0149
ACGCCGAT | 0.00428
AGCCAACT | -0.112
GAGCGTAA | 0.0788
CACCGGGA | 0.0376
AGTATACT | -0.1
ATTAGAAA | 0.15
CACATAAG | 0.044
GCAAAGGC | -0.221
GAAGAGAC | 0.0213
AACAGCTA | -0.0909
CACAACCC | -0.112
AATACGAA | 0.176
CATTTAGC | -0.126
GTAGAAGA | -0.0532
CCGCCCTA | 0.0241
AGCGTGCG | 0.02
CCATATAA | 0.101
ACGTAACG | -0.00102
CTAAGTAA | 0.0277

Sequence | PBM E-score
AATCTGCT | -0.2
AGGTTGCC | -0.0936
AGGCACCT | -0.3
CCTGGCCC | -0.202
CTCAATCA | 0.0531
AGCGCAAG | -0.0674
CTCCGTCA | -0.0659
AGTGGGTC | -0.103
CTTTCCCA | -0.00597
ACGCTCTA | -0.267
CGCTGCGA | 0.0236
TAATGATA | 0.272
GGTGCCAC | -0.171
AAAATGAT | 0.317
AAAGTTGG | 0.0145
AGCGTAAC | 0.0325
GACGAGTC | -0.0383
CCGTTACG | -0.094
CTATAAAG | 0.0956
GATTTGCC | 0.0469
AGCTACCA | -0.0088
TCAACTCA | 0.0748
GAGCCAAA | 0.181
AATCAGGT | 0.165
AAGTTCAA | 0.124

Sequence | PBM E-score
AATCTCCC | 0.0742
CTGTGGCC | -0.268
AGCTGTTC | -0.165
AAACAGGT | 0.0754
CAATTAAG | 0.123
AAAGCAAA | 0.148
CACCCATC | 0.0166
GACCGTGA | -0.0399
GGAAGAAA | 0.208
AAGAAGGG | 0.0119
TAGGGACA | -0.0368
GCCAGGAC | -0.0764
ATGCAAGG | 0.0272
AGTTTGGA | 0.115
AAAATATA | 0.241
GCCGCACA | -0.0587
ATATAACC | 0.168
AAACCTAG | 0.16
GCAGCCCA | -0.22
CCCTTTGA | -0.0164
AAACCTAA | 0.121
GAAGAACA | 0.119
ACAGGAAG | 0.0226
ACACAGCT | -0.147
TAGGTGCA | -0.186

Sequence | PBM E-score
CCAACAAA | 0.248
AACGAATT | 0.125
GAAGATTA | 0.121
TCATCACA | -0.0218
AAAGAAGT | 0.127
ACTGAGCA | -0.119
CAACTTGA | 0.0746
ATGGGGGA | 0.00889
GTCGATAA | -0.0899
AGATGGAC | 0.0057
ATTCGGTA | 0.148
GACTCATC | -0.139
CAGGTGCC | -0.0927
ACGCACGG | -0.0974
CAACGCTA | -0.141
CTTTGGGC | -0.0925
CGCAACCA | 0.0423
AATGCGCT | -0.0615
ACGAATGG | 0.104
AGTTGACC | -0.00451
CCAGAGAC | -0.0447
GATTTCTA | 0.197
CATTGCAG | 0.0295
CGACGGTA | -0.00601
ATAGCTAG | 0.00107

Sequence | PBM E-score
CGAGAGGA | 0.0361
GTCAAGGA | -0.193
GCTAACCC | -0.192
CCCAGCAA | 0.0734
GGTCACTA | 0.0189
GTTGGTGA | 0.0365
ATTTGAGG | 0.0517
CATATGGC | -0.0838
ACATGAAA | 0.283
CAGATGGC | 0.0115
CGGGACAA | 0.115
AATTACAT | 0.0508
GGTCTACA | -0.17
AAAGCTCG | -0.0769
GTAAATGA | 0.105
AACGCAAC | 0.103
ACTAATAT | 0.288
ATCGGTCG | 0.00241
ATTCGGAC | 0.158
GGCACCAA | 0.134
GATGTAGA | 0.0935
AGCCAAAG | -0.076
TCTCGGAA | 0.0872
AATTAAGG | 0.0961
CATTCGAG | -0.0513

Sequence | PBM E-score
CGTGCAGA | 0.0508
CCGTGTGA | 0.0489
TGCGACCA | 0.196
GGCTCCGA | 0.0554
AAATGTGC | 0.135
AAGAACCA | 0.102
AATACGCT | -0.059
AATTCAGT | 0.11
CAGGGAAC | -0.0428
TAAACTAA | 0.148
CGAAGAAA | 0.195
AGTGATCC | -0.115
CATAATTC | 0.0847
ACGAGTCA | -0.217
AAATGTAC | 0.137
CGTCTTCA | 0.0887
ACGGGTGA | -0.0108
GCCCACGC | -0.208
CCTCTCCA | -0.27
CAGAATGC | -0.0398
AGCCGGTC | -0.208
GACGACTA | -0.309
ACACTATC | -0.0353
TCACACCA | 0.0689
GCTGTTTA | 0.14

Sequence | PBM E-score
GATCCACA | -0.0832
AAATTCCG | 0.0548
TGCCGGAA | 0.127
CCGTGGTC | -0.0895
GGAAGCCA | -0.234
CCGCACCA | 0.0349
CCGAGCAA | -0.0609
CAGATAGA | 0.02
GATATGCC | -0.151
CGAGAACA | -0.00474
CGTAGTGC | -0.235
CCAAGAGC | -0.0114
ATAGGCTC | 0.0469
CCGAAACG | 0.152
CCCCAGTA | -0.151
GTCTTAAC | -0.0934
CAATTTAC | 0.162
CCGGGAGA | 0.00169
CGGCGGAC | 0.0594
GGGAAGCA | -0.0502
CGCCAGCC | 0.113
ACACTGGC | -0.0123
ACGCCCCA | 0.239
CTTCTTGC | 0.0552
CGCGGCCG | -0.0485

Sequence | PBM E-score
GTGCTTCA | 0.0585
ACAGTTCC | 0.155
AATGTACG | -0.0878
AAGACAAT | 0.189
CCTTCTAC | -0.123
AGTATAGA | 0.0332
CAAAAAAC | 0.298
GACAAACC | 0.0318
ACAATAAG | 0.0961
ATCTCGGC | -0.117
GCCCATTA | -0.0859
AATGCCCA | -0.0978
GCAACTGC | -0.0551
CCAGAGAA | -0.0241
ACTTGGGG | 0.143
CGTTCCAG | 0.0196
TACAGAGA | -0.0888
CACCCGGG | -0.0473
CCAGAAAG | 0.0754
